The list shows a part of the results. Many values rest on one well or one pass, so single values are uncertain.
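Further: cell number obtained by counting DAPI-stained nuclei in high-throughput microscope images with image analysis software, screen run in 1,536-well plates.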

The first experiment has as its system SkMel5. As to the kind of experiment: cell count relative to DMSO control; melanoma cells; higher = more viable cells. As to conditions: library dose: low library concentration; 72 h.
For the compound `OCc1c[nH]c2ccccc12` [Indole-3-carbinol] + CN(C)S(=O)(=O)c1ccc2c(c1)/C(=C/c1cc3c([nH]1)CCCC3)C(=O)N2 [SU6656] (first compound 0.8 µM, partner dose 0.4 µM), the cell count is 85.6%.
As to `COCC[n+]1c2c(n(Cc3cnccn3)c1C)C(=O)c1ccccc1C2=O` + NC(=O)Nc1cc(-c2cccc(F)c2)sc1C(=O)N[C@H]1CCCNC1 [AZD7762] (first compound 0.0004 µM, partner dose 0.02 µM), the cell count stood at 71.2%.
Same read-out and setting: next, `Nc1cccc2c1CN(C1CCC(=O)NC1=O)C2=O` (centres undefined) [lenalidomide] + O=C(O)c1ccc(-c2c[nH]c3ncc(-c4ccccc4)cc23)cc1C1CCCC1 [GSK650394] (first compound 1 µM, partner dose 0.16 µM): 104%; `COCC[n+]1c2c(n(Cc3cnccn3)c1C)C(=O)c1ccccc1C2=O` + Cn1cncc1[C@@](N)(c1ccc(Cl)cc1)c1ccc2c(c1)c(-c1cccc(Cl)c1)cc(=O)n2C [tipifarnib] (first compound 0.0004 µM, partner dose 0.01 µM): 61.9%.

A further experiment deals with UACC257. The experiment is described as above. The following applies: library dose: low library concentration; 72 h.
`O=C(CCCCCCC(=O)Nc1ccccc1)NO` [vorinostat] + Cn1cncc1[C@@](N)(c1ccc(Cl)cc1)c1ccc2c(c1)c(-c1cccc(Cl)c1)cc(=O)n2C [tipifarnib] (first compound 0.08 µM, partner dose 0.01 µM) registered a cell count of 76.5%.
On the same count and under the same terms, next, `O=C(CCCCCCC(=O)Nc1ccccc1)NO` [vorinostat] + O=C(Nc1cccc(Cl)c1)Nc1ncc(CCNc2ncnc3ccsc23)s1 [SNS314] (first compound 0.08 µM, partner dose 0.0008 µM): 93.1%; `Nc1cccc2c1CN(C1CCC(=O)NC1=O)C2=O` (centres undefined) [lenalidomide] + Cn1cncc1[C@@](N)(c1ccc(Cl)cc1)c1ccc2c(c1)c(-c1cccc(Cl)c1)cc(=O)n2C [tipifarnib] (first compound 1 µM, partner dose 0.01 µM): 84.2%.
On the same count and under the same terms, to `COCC[n+]1c2c(n(Cc3cnccn3)c1C)C(=O)c1ccccc1C2=O` + CC(C)(C)c1cnc(CSc2cnc(NC(=O)C3CCNCC3)s2)o1 [SNS-032] (first compound 0.0004 µM, partner dose 0.01 µM) belongs 136%; to `OCc1c[nH]c2ccccc12` [Indole-3-carbinol] + COC(=O)c1sccc1S(=O)(=O)Nc1ccc(Nc2ccccc2)cc1OC [GSK0660] (first compound 0.8 µM, partner dose 1 µM), 86.1%.
Same read-out and setting: to `COCC[n+]1c2c(n(Cc3cnccn3)c1C)C(=O)c1ccccc1C2=O` + CN(NC(=O)CC(=O)NN(C)C(=S)c1ccccc1)C(=S)c1ccccc1 [STA4783] (first compound 0.0004 µM, partner dose 0.006 µM) belongs 87.7%.
As to `O=C(CCCCCCC(=O)Nc1ccccc1)NO` [vorinostat] + CO[C@@H]1[C@H](N(C)C(=O)c2ccccc2)C[C@H]2O[C@]1(C)n1c3ccccc3c3c4c(c5c6ccccc6n2c5c31)C(=O)NC4 [Midostaurin] (first compound 0.08 µM, partner dose 0.08 µM), the cell count stood at 78.3%.
Same read-out and setting: to `OCc1c[nH]c2ccccc12` [Indole-3-carbinol] + O=S(=O)(c1ccccc1)N(CC(F)(F)F)c1ccc(C(O)(C(F)(F)F)C(F)(F)F)cc1 [T0901317] (first compound 0.8 µM, partner dose 1.4 µM) belongs 71%; to `C#Cc1cccc(Nc2ncnc3cc(OCCOC)c(OCCOC)cc23)c1` [erlotinib] + CC(C)(C)c1cnc(CSc2cnc(NC(=O)C3CCNCC3)s2)o1 [SNS-032] (first compound 0.8 µM, partner dose 0.01 µM), 104%.
Still for that read-out and setting: next, `OCc1c[nH]c2ccccc12` [Indole-3-carbinol] + Oc1cc(-c2nc(-c3ccccc3)[nH]c2-c2ccncc2)ccc1Cl [L779450] (first compound 0.8 µM, partner dose 0.2 µM): 75.7%; `Clc1ccc(Nc2nnc(Cc3ccncc3)c3ccccc23)cc1` [vatalanib] + O=C1NC(=O)/C(=C/c2ccc(-c3ccc(F)cc3O)o2)S1 [AS252424] (first compound 2 µM, partner dose 1 µM): 96.5%.
`C#Cc1cccc(Nc2ncnc3cc(OCCOC)c(OCCOC)cc23)c1` [erlotinib] + CN(C)S(=O)(=O)c1ccc2c(c1)/C(=C/c1cc3c([nH]1)CCCC3)C(=O)N2 [SU6656] (first compound 0.8 µM, partner dose 0.4 µM) displayed a cell count of 119%.
On the same count and under the same terms, to `Clc1ccc(Nc2nnc(Cc3ccncc3)c3ccccc23)cc1` [vatalanib] + O=C(Nc1cccc(Cl)c1)Nc1ncc(CCNc2ncnc3ccsc23)s1 [SNS314] (first compound 2 µM, partner dose 0.0008 µM) belongs 94.7%; to `C#Cc1cccc(Nc2ncnc3cc(OCCOC)c(OCCOC)cc23)c1` [erlotinib] + Cc1ccc(NC(=O)c2cccc(N(C)C)c2)cc1NC(=O)c1ccc(O)cc1 [ZM336372] (first compound 0.8 µM, partner dose 2 µM), 81.4%; to `Clc1ccc(Nc2nnc(Cc3ccncc3)c3ccccc23)cc1` [vatalanib] + CC1(C)NC(=O)N(c2ccc([N+](=O)[O-])c(C(F)(F)F)c2)C1=O [nilutamide] (first compound 2 µM, partner dose 1 µM), 82.8%.
The same measure, in the same setting: next, `Clc1ccc(Nc2nnc(Cc3ccncc3)c3ccccc23)cc1` [vatalanib] + Cc1ccc(NC(=O)c2cccc(N(C)C)c2)cc1NC(=O)c1ccc(O)cc1 [ZM336372] (first compound 2 µM, partner dose 2 µM): 120%; `C#Cc1cccc(Nc2ncnc3cc(OCCOC)c(OCCOC)cc23)c1` [erlotinib] + COc1cc2c(Oc3ccc4[nH]c(C)cc4c3F)ncnc2cc1OCCCN1CCCC1 [cediranib] (first compound 0.8 µM, partner dose 0.4 µM): 107%.
Turning to `Clc1ccc(Nc2nnc(Cc3ccncc3)c3ccccc23)cc1` [vatalanib] + CCc1ccc(CCOc2ccc(CC3SC(=O)NC3=O)cc2)nc1 [pioglitazone] (first compound 2 µM, partner dose 2 µM), the cell count came to 93.9%.
Still for that read-out and setting: next, `O=C(CCCCCCC(=O)Nc1ccccc1)NO` [vorinostat] + COc1cc2c(Oc3ccc4[nH]c(C)cc4c3F)ncnc2cc1OCCCN1CCCC1 [cediranib] (first compound 0.08 µM, partner dose 0.4 µM): 98.2%.
Still for that read-out and setting: to `Nc1cccc2c1CN(C1CCC(=O)NC1=O)C2=O` (centres undefined) [lenalidomide] + O=C(Nc1cccc(Cl)c1)Nc1ncc(CCNc2ncnc3ccsc23)s1 [SNS314] (first compound 1 µM, partner dose 0.0008 µM) belongs 103%; to `Nc1cccc2c1CN(C1CCC(=O)NC1=O)C2=O` (centres undefined) [lenalidomide] + O=C(CCCCCCC(=O)Nc1ccccc1)NO [vorinostat] (first compound 1 µM, partner dose 0.08 µM), 85%; to `COCC[n+]1c2c(n(Cc3cnccn3)c1C)C(=O)c1ccccc1C2=O` + COc1cc(Nc2ncc(F)c(Nc3ccc4c(n3)NC(=O)C(C)(C)O4)n2)cc(OC)c1OC [Tamatinib] (first compound 0.0004 µM, partner dose 0.4 µM), 54.8%.
On the same count and under the same terms, next, `O=C(CCCCCCC(=O)Nc1ccccc1)NO` [vorinostat] + O=C(O)c1ccc(-c2c[nH]c3ncc(-c4ccccc4)cc23)cc1C1CCCC1 [GSK650394] (first compound 0.08 µM, partner dose 0.16 µM): 96%; `Clc1ccc(Nc2nnc(Cc3ccncc3)c3ccccc23)cc1` [vatalanib] + O=C(O)C(=O)Nc1sc2c(c1C(=O)O)CCNC2 [TCS401] (first compound 2 µM, partner dose 1.66667 µM): 92.5%; `Clc1ccc(Nc2nnc(Cc3ccncc3)c3ccccc23)cc1` [vatalanib] + COc1ccc(COc2ccc(Cc3cnc(N)nc3N)cc2OC)cc1 [GW2580] (first compound 2 µM, partner dose 1 µM): 80.6%.
In turn, `Clc1ccc(Nc2nnc(Cc3ccncc3)c3ccccc23)cc1` [vatalanib] + Oc1cc(-c2nc(-c3ccccc3)[nH]c2-c2ccncc2)ccc1Cl [L779450] (first compound 2 µM, partner dose 0.2 µM) had a cell count of 75.1%.
The same measure, in the same setting: next, `Clc1ccc(Nc2nnc(Cc3ccncc3)c3ccccc23)cc1` [vatalanib] + O=C(O)c1ccc(-c2c[nH]c3ncc(-c4ccccc4)cc23)cc1C1CCCC1 [GSK650394] (first compound 2 µM, partner dose 0.16 µM): 78.1%; `OCc1c[nH]c2ccccc12` [Indole-3-carbinol] + Cc1cc([N+](=O)[O-])ccc1NS(=O)(=O)c1cc(Cl)ccc1Cl [FH535] (first compound 0.8 µM, partner dose 1 µM): 85.5%; `Clc1ccc(Nc2nnc(Cc3ccncc3)c3ccccc23)cc1` [vatalanib] + CC(C)(C)c1cnc(CSc2cnc(NC(=O)C3CCNCC3)s2)o1 [SNS-032] (first compound 2 µM, partner dose 0.01 µM): 66.2%.
Still for that read-out and setting: to `O=C(CCCCCCC(=O)Nc1ccccc1)NO` [vorinostat] + C[C@@H]1CCN(C(=O)CC#N)C[C@@H]1N(C)c1ncnc2[nH]ccc12 [CP690550] (first compound 0.08 µM, partner dose 1 µM) belongs 94.9%.

The record behind these values is the supplement of paper PMC4604168 (melanoma cell lines).
